Assay results: ChEMBL document CHEMBL4888484, “Replenishing the malaria drug discovery pipeline: Screening and hit evaluation of the MMV Hit Generation Library 1 (HGL1) against asexual blood stage Plasmodium falciparum ,using a nano luciferase reporter read-out” (2022)
Among all 150,000 compounds or so, about 540 (0.36%) showed an effect of 50% or more. Some of the results follow.

system: Plasmodium falciparum; assay: Primary screen in NF54 nanoGlo assay, in single point, at 2uM, 72h; a lower Z score goes with more inhibition; assay type: functional, Erythrocyte; details: timepoint 72 hour

SMILES | % Inhibition | Z score
Cc1ccccc1-n1ncnc1CC1CCNCC1 | -6% | 0.89
O=C(O)c1ccc(OCCN2CCCC2C2CCCOC2)c(Cl)c1 (stereo not drawn) | -5% | 0.72
CN(Cc1cccnc1)C(=O)c1ccsc1 | 13% | -1.16
CCc1c(C)c(C(=O)NCCc2ccc(OC)c(OC)c2)n(Cc2ccc(C)cc2)c1C | -2% | 0.18
CN(CC=Cc1ccc(F)cc1)Cc1cnn(C)c1 | -6% | 0.65
C[C@@H](C(=O)N(C)C)S(=O)(=O)N1CCN(C)CC12CCCCC2 | -5% | 0.66
O=C(NCc1noc(Cc2cccs2)n1)c1cnc2ccccn12 | -2% | 0.41
C[C@](O)(CNC(=O)C1CCCC1)c1cccs1 | -1% | 0.12
CCn1cc(C(=O)Nc2ccc(-n3ccnn3)cc2)c(C(F)(F)F)n1 | -5% | 0.6
O=C(Nc1ccc(-c2ccn[nH]2)cc1)[C@H]1CCCN(Cc2cccc3nonc23)C1 | 3% | -0.44
CCn1ccnc1CN(C)C(=O)CN(C)CCOC | -18% | 3.08
Cc1ccc(OC(=O)c2ccccc2Cl)c(-n2nc3ccccc3n2)c1 | -11% | 1.27
COc1ccc(CNc2nc(-c3ccc(C)cc3)nnc2C)cc1 | 5% | -0.99
Cc1ccc(-n2c(=O)c3ccccc3n(CC(=O)N3CCCC3)c2=O)cc1C | 5% | -0.55
Cn1ncnc1CNc1cccc(Cl)c1Br | 37% | -4.81
O=C(O)CCc1cc2n(n1)CCCN(Cc1cc3c(cc1Cl)OCO3)C2 | -5% | 0.84
CC(C)[C@H](CNC(=O)CCC1CCCC1)c1cccnc1 | 3% | -0.23
COc1cccc(C2(C(=O)N3CC[C@](C)(C(=O)O)C3)CCCC2)c1 | -8% | 1.06
CCCC1(CCC)C(=N)NC(=O)NC1=O | -4% | 0.69
CC(C)c1ccc(N(C)C(=O)c2ccc(C(=O)O)o2)cc1 | -3% | 0.67
COc1ccc(-n2c(C)cc(C(=O)N3CCO[C@@H](CC(=O)O)C3)c2C)cc1 | 2% | -0.31

SMILES | % Inhibition | Z score
CN(Cc1ncc[nH]1)C(=O)c1ccc2c(c1)n(CC1CC1)c(=O)n2C1CCCCC1 | -6% | 0.72
Cc1nn(C)cc1Cn1ccnc1-c1nccn1C(C)C | -7% | 1.41
O=C(c1ccccc1)c1ccc(N2C(=O)c3ccc(C(c4ccc5c(c4)C(=O)N(c4ccc(C(=O)c6ccccc6)cc4)C5=O)(C(F)(F)F)C(F)(F)F)cc3C2=O)cc1 | 2% | -0.33
CCCn1c(C(=O)N2CCN(CC)CC2)cc2cc(NC(=O)c3cccc(F)c3)ccc21 | -14% | 1.76
CCc1nc(C)c(C(=O)N[C@H]2CCN(C)C2=O)s1 | 10% | -1.31
COc1cc(OC)cc(C(=O)N2CCCN(c3nc4c(s3)c(C)nn4-c3ccc(C)cc3)CC2)c1 | -5% | 0.78
CCCO/C(=N/C(=O)c1ccc(C(F)(F)F)cc1)NCc1ccc2c(c1)OCO2 | -5% | 0.53
Cn1cnc2cc(CNC(=O)c3cccc(Cl)c3)ccc21 | -20% | 1.92
COc1cc2ccc1OCC(=O)N[C@@H](C)C(=O)N(C)CCCCN(C(=O)[C@@H]1CCCO1)CCCNC2=O | -12% | 1.48
CC[C@@H](C(=O)N1CCN=C1N1CCN(c2ccccc2F)CC1)c1ccccc1 | -9% | 1.57
Cc1n[nH]cc1CNC1(CNC(=O)OC(C)(C)C)CCCCC1C (stereo not drawn) | -9% | 1.24
CN(Cc1ccccc1)C(=O)c1cc2sccc2n1Cc1cccc(Cl)c1 | -12% | 1.2
CC(=O)Nc1ccc(CNC2(Cc3cc(CN4CCCCC4)on3)COC2)cc1 | 4% | -0.7
O=C(CCc1conc1-c1ccc(F)cc1)NCc1ccccc1Br | -8% | 1.03
Cc1cccc(N(CCC(N)=O)C(=O)c2[nH]c3c(c2C)C(=O)CCC3)c1 | -12% | 1.65
O=C([C@@H]1CCCO1)N1CCc2cc(F)cnc21 | 9% | -1.13
CCO[C@H]1CN(C)C[C@@H]1NC(=O)c1ccc(-c2ccc3c(c2)OCC3)cc1 | -8% | 1.57
CC1C(C(F)(F)F)OCCN1C(=O)Nc1ccn(CCN2CCOCC2)n1 (stereo not drawn) | -10% | 1.68
CCCCN(CC)C(=O)c1cc(NC(=O)c2ccc(F)cc2)cnc1N1CCNCC1 | 3% | -0.42
CC(NC(=O)N1Cc2cccnc2N2CCC[C@@H]2C1)c1ccnn1C (stereo partly drawn) | -3% | 0.52
CCCNS(=O)(=O)N1CCC(n2cc(Br)cn2)CC1 | -5% | 0.97

SMILES | % Inhibition | Z score
COc1ccc(-n2cccn2)c(-c2cn(C[C@H]3CNCCO3)nn2)c1 | 0% | -0.06
O=C(NCc1ccc2c(c1)OCO2)c1ccncc1 | -10% | 1.59
CC(C)CN(CC(C)(C)C)C(=O)C(=O)Nc1cccnc1 | -14% | 1.59
FC(F)(F)C1(C(F)(F)F)CNCCO1 | -3% | 0.58
CN(CC[C@H]1CN(C(=O)c2cccs2)CC[C@H]1CC(=O)O)c1ccccc1 | 17% | -2
O=C(O)c1cc(NS(=O)(=O)c2ccc(F)c(F)c2)ccc1N1CCC(N2CCCCC2)CC1 | 1% | -0.14
Cc1cc(CNC(=O)C(C)(C)C)c(C)o1 | 6% | -0.86
C[C@@H](CNC(=O)C(=O)Nc1cccc(C(C)(C)O)c1)N(C)C1CC1 | -7% | 1.3
COCc1nnc2c3ccc(Cl)cc3nc(N3CCN(C(=O)c4ccccc4OC)CC3)n12 | -5% | 1.06
Cc1nc2c(s1)[C@@H](NCc1nnc3n1CCCC3)CCC2 | 7% | -1.08
COc1cnc(NS(=O)(=O)c2ccc(Cl)s2)nc1 | -15% | 1.47
COCCn1nc2n(c1=O)CCC1(CC2)CCN(C(=O)Cc2cccc(OC)c2)CC1 | 2% | -0.24
O=C(Nc1nnc(COc2ccccc2)o1)c1ccc2nsnc2c1 | 10% | -1.42
Cc1ccc(CN(C)C(=O)[C@H](N)CC(C)C)o1 | -8% | 1.04
Cc1csc(CNC(=O)N2CC[C@H](C3CCOCC3)C2)c1 | -11% | 1.68
Cc1ccc(S(=O)(=O)N2CCc3nc(NC(=O)c4ccc(F)cc4)sc3C2)cc1 | 22% | -2.07
Cn1c(C2CCN(C(=O)Nc3ccc(Br)cc3)CC2)cc(=O)n2nccc12 | -1% | 0.12
O=C(c1ccc2ccccc2n1)N1CCCC[C@H]1c1nc(C2CC2)no1 | -16% | 1.69
N#Cc1ccc(CN2C[C@H]3CC[C@@H](C2)N(Cc2cscn2)C3=O)cc1 | -15% | 2.08
CC(NC(=O)CN1c2ccccc2CCC1C)c1ccco1 (stereo not drawn) | 0% | 0.01
COc1cc(C)ccc1Oc1nc(C)nc(N2CCC[C@H](C)C2)c1N | 2% | -0.37

SMILES | % Inhibition | Z score
O=C(c1ccc(C#CCC2CCCC2)nc1)N1CCCCC1 | -7% | 1.34
CC(C)c1noc(CCc2nc(-c3ccccc3)no2)n1 | -2% | 0.27
O=C(c1cn2c(n1)CCCC2)N1CCc2ccc(Cl)cc2C1 | -14% | 1.94
CCCc1cc(C(=O)N[C@@H](CC)c2nc(C)no2)[nH]n1 | -12% | 1.85
Cn1c(C2CCN(S(C)(=O)=O)CC2)nn(CC(=O)Nc2ccccc2)c1=O | -9% | 1.36
CC[C@@H](CNC(=O)c1ccc(-n2c(=O)n(C)c(=O)n2C)cc1)c1ccccc1 | -16% | 2.16
O=S(=O)(Cc1ccccc1)NCCC1CCCCCC1 | -6% | 0.91
CC(=O)N1CCCC[C@H]1C1=CCCN(Cc2cc(F)ccc2C)C1 | -11% | 1.77
CCc1c(C)noc1NC(=O)Cc1cc(C)no1 | -3% | 0.59
O=C(c1coc(COc2cccc(F)c2)n1)N1C[C@H]2CC[C@H]1C2 | 2% | -0.35
Cc1nc(CN[C@@H](C)c2nc(C3CCCCC3)no2)oc1C | -7% | 0.94
Cc1nc2c(N3CCN(Cc4ccoc4)[C@@H](CCO)C3)ncnc2o1 | -20% | 1.93
CCNC(=O)c1ccc(Nc2c(Oc3cccc(C)c3)cnn(-c3ccc(F)cc3)c2=O)cc1 | -14% | 1.4
CN(Cc1ccccc1)C(=O)CN1C(=O)COc2ccc(S(=O)(=O)N3CCOCC3)cc21 | -2% | 0.41
Cc1nc(C)c(-c2nccn2Cc2ccc(S(N)(=O)=O)cc2)s1 | 5% | -0.7
N#CCCN(CC1CC1)C(=O)c1cnc(-c2ccc(F)c(F)c2)s1 | -6% | 0.65
CC(C)(NC(=O)C(F)(F)F)C(=O)N1CC(O)(C2CC2)C1 | -10% | 1.9
CCC(C)c1csc(NC(=O)N(C)CC(C)C(=O)NC)n1 (stereo not drawn) | -17% | 1.72
COCCN(CCC(=O)N1CCCC1)C(=O)c1cc(-c2cc(C)ccc2C)on1 | -19% | 2.99
CCc1noc(C2(NCc3cc(Cl)sc3Cl)CCOCC2)n1 | -6% | 0.82
O=C(C1=COCCC1)N1CCCC[C@@H]1CCc1ccccc1 | -10% | 1.44
